From EP3138561A1 (priority 2014, dated 2015) come the findings set out here.

This series relates to Burkholderia cepacia. The settings on record: 0.05%, 0.1%, and 0.2% solutions.

For the compound `CC1CCC(C(C)C)C(OC(=O)C[N+](C)(C)CCCCCCCCCC[N+](C)(C)CC(=O)OC2CC(C)CCC2C(C)C)C1` (centres unmarked) [decamethoxine, 1,10-decamethylene-bis(N,N-dimethyl-menthoxycarbonylmethyl)ammonium dichloride], the adverse side effects result was “no adverse side effects were observed”. Also, for the setting “most patients”, the tolerance result is given as “good tolerance”.
